# From PubChem BioAssay AID1030 (National Center for Advancing Translational Sciences (NCATS), 2008)
# About 16,000 (7.3%) of roughly 220,000 compounds were called active. The shares of active, inactive and inconclusive entries below differ from those in the screen. Calls come from the whole dose curve; as a rule, active = well fitted inhibition curve with a large enough effect (not every such curve was filed as active); inconclusive = small, poorly fitted or top-dose-only effect, or another doubt; inactive = no such curve, though single readings can be large or run the other way. No potency is given beside an inconclusive call; the fits are too rough.
# Molecular target: Aldehyde dehydrogenase 1A1 (Homo sapiens) (UniProt P00352)
# Experiment: qHTS Assay for Inhibitors of Aldehyde Dehydrogenase 1 (ALDH1A1);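 for activity, negative = inhibition: plate controls were no enzyme wells and a reference inhibitor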
# Details: Purified ALDH1A1, NADH fluorescence, propionaldehyde substrate; series mostly up to 75.3 µM; activity, negative = inhibition: at the top concentration
# Potency is the fitted concentration of half-maximal effect; tags give direction and shape of the fitted curve.
# Sequence of UniProt P00352 (P00352 whole entry, looked up): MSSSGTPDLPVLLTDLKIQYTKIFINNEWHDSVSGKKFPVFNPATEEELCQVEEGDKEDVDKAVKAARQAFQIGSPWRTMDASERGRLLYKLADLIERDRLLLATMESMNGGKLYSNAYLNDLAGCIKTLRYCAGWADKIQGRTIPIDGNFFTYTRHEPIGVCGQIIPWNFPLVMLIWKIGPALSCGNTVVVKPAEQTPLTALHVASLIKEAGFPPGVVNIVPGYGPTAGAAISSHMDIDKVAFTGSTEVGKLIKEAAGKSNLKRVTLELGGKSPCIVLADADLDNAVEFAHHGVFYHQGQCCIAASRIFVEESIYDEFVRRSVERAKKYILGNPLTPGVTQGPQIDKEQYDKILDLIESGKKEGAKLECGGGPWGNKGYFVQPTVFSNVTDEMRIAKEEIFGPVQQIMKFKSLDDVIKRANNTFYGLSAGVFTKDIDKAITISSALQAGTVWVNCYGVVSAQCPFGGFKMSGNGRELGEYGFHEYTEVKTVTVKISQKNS
Compound,Potency,"activity, negative = inhibition"
COc1ccccc1N1CCN(CC(=O)N2CCCC2)CC1,"inconclusive [inhibitor, single point]",
Cc1ccc(CN/C=C/C(=O)c2ccc(Br)cc2)cc1,active: 15.8 µM,
Cn1ccnc1Sc1cc(NCCCO)c([N+](=O)[O-])c2nonc12,,inactive: 6.91%
COc1ccc(NC(=O)CCNC(C)=O)cc1NS(=O)(=O)c1ccc(F)cc1,"inconclusive [inhibitor, single point]",
COc1ccc(NC(=S)NC(NC(C)=O)C(Cl)(Cl)Cl)c([N+](=O)[O-])c1 (centres undefined),"inconclusive [inhibitor, single point]",
COc1cc(/C=C/C(=O)NC(C)C)ccc1OCc1ccccc1,"inconclusive [inhibitor, single point]",
CN(C)c1ccc(-c2nccc(Nc3ccc(F)cc3)n2)cc1,"inconclusive [inhibitor, partial curve]",
Brc1ccc(C=Nc2ccc(Nc3ccccc3)cc2)s1,"inconclusive [inhibitor, single point]",
NC(=O)C1CCN(C2CC(=O)N(Cc3cccs3)C2=O)CC1 (centres undefined),"inconclusive [inhibitor, single point]",
O=C(Nc1cccc([N+](=O)[O-])c1)c1ccc2nc(N3C(=O)CCC3=O)sc2c1,"inconclusive [inhibitor, partial curve]",
O=C(N/N=C/C1CC2CCC1C2)c1c[nH]c2ccccc12 (centres undefined),active: 14.1 µM,
CS(=O)(=O)NN1C(=O)c2ccccc2NC12CCCC2,"inconclusive [inhibitor, partial curve]",
c1ccc(C2=NCCCN2)cc1,,inactive: 2.8%
CCNc1nc(NCC)nc(SCCOc2ccc(C)cc2)n1,"inconclusive [inhibitor, single point]",
O=C(NC1CCCCCCC1)c1ccccc1-c1ccccc1,"inconclusive [inhibitor, single point]",
Cc1ccc(-n2nnnc2-c2cnc3cc4c(cc3c2C)OCO4)cc1,"inconclusive [inhibitor, partial curve]",
CC(C(=O)Nc1ccccc1-c1ccccc1)N1CCN(S(=O)(=O)c2ccccc2)CC1 (centres undefined),"inconclusive [inhibitor, full curve]",
COc1ccc(/C=C2/SC(=O)N(CCC(=O)Nc3ccccc3)C2=O)cc1OC,"inconclusive [inhibitor, single point]",
O=C(c1ccccc1Br)N1CCN(c2ccccc2)CC1,"inconclusive [inhibitor, single point]",
CCC(CC)C(=O)c1c[nH]c(C(=O)NN)c1,active: 7.94 µM,
CC(=O)Oc1cc(OC(C)=O)c2c(C)cc(=O)oc2c1,"inconclusive [inhibitor, partial curve]",
Brc1ccc(OCc2ccccc2)c(CNCc2ccncc2)c1,active: 2 µM,
Cc1ccc(NC(=O)CSc2nnc(-c3cnccn3)n2-c2ccccc2)cc1,,inactive: 1.51%
COc1ccc(/C=N/NC(=O)CCn2cnc(-c3ccccc3)c2-c2ccccc2)cc1OC,active: 28.2 µM,
Cc1ccc(S(=O)(=O)NCCC(=O)Nc2ccc3c(c2)OCO3)cc1,,inactive: -1.63%

Compound,Potency,"activity, negative = inhibition"
CCNC(=O)N1c2ccccc2Sc2ccccc21,,inactive: 6%
Cc1oc(-c2ccc(Cl)cc2)cc1C(=O)/C(C#N)=C/Nc1ccccc1,"inconclusive [inhibitor, single point]",
CCCn1c(N2CCN(CC(=O)c3c(C)n(C)c4ccccc34)CC2)nc2c1c(=O)[nH]c(=O)n2C,"inconclusive [inhibitor, single point]",
COc1ccccc1NC(=O)c1c(Br)cnn1C,,inactive: 3.41%
CCC(=O)c1ccc(OCC(O)Cn2c(C)nc3ccccc32)cc1 (centres undefined),,inactive: 3.59%
O=[N+]([O-])c1cccc(N=NN(CCO)c2cccc([N+](=O)[O-])c2)c1,"inconclusive [inhibitor, full curve]",
CN1N=C(c2ccc(F)c(F)c2)CSC1=NCc1ccccc1,,inactive: 10.1%
COc1ccc2[nH]c(C)c(CCNC(=S)Nc3cccc(C)c3)c2c1,"inconclusive [inhibitor, partial curve, poor fit]",
N#Cc1cc(NC(=O)c2ccc(F)cc2)c(=O)n2c1[nH]c1ccccc12,,inactive: 0.427%
CCCCNc1c([N+](=O)[O-])cc(C)cc1[N+](=O)[O-],"inconclusive [inhibitor, partial curve]",
C/[N+]([O-])=C\c1coc2ccccc2c1=O,,inactive: 1.63%
COc1cc(/C=C2\SC(=O)N(Cc3ccc(Cl)cc3)C2=O)cc([N+](=O)[O-])c1O,active: 2.51 µM,
CN1/C(=C\P(=O)(N(C)C)N(C)C)C(C)(C)c2ccccc21,,inactive: -4.31%
COc1ccc(-c2cc(NCc3ccccn3)n3ncnc3n2)cc1,"inconclusive [inhibitor, single point]",
S=C(Nc1ccc(Cl)cc1Cl)N1CCCCC1,,inactive: -7.73%
COc1ccccc1-c1nc(C#N)c(N2CCC(Cc3ccccc3)CC2)o1,"inconclusive [inhibitor, partial curve]",
CCN(CCNC(=O)CS(=O)(=O)Cc1nc(-c2cccc(OC)c2)oc1C)c1ccccc1,"inconclusive [inhibitor, single point]",
CCOc1nc(SCCOc2ccc(Cl)cc2Cl)nc(N(C)C)n1,,inactive: 9.7%
COc1ccc(OC(C)c2nnc(N)s2)cc1 (centres undefined),"inconclusive [inhibitor, single point]",
CC(=O)c1c(CC(=O)O)[nH]n(-c2nc3ccccc3s2)c1=O,,inactive: -72.7%
CN(C)c1ncc2nc(-c3ccccc3)c(=O)n(C)c2n1,"inconclusive [inhibitor, partial curve]",
Fc1ccc(-c2nc3nc4ccccc4nc3n2Cc2ccco2)cc1,"inconclusive [inhibitor, partial curve]",
COc1ccc(/C=C(\C#N)C(N)=O)cc1OC,,inactive: -7.25% [at 13.5 µM]
Cc1noc(C)c1COc1cccc(C(=O)N2CCN(C/C=C/c3ccccc3)CC2)c1,"inconclusive [inhibitor, single point]",
